From publication PMC3884069 (Cellular and molecular life sciences : CMLS, 2012)

Target: the molecule itself
Experiment: non-reducing SDS-PAGE and western blot

B1: HLA-G5 (soluble HLA-G isoform, α1–α2–α3 domains) (natural protein)
MHC heavy: not shown
stoichiometry N: 2
